# Measured values as given in PubChem BioAssay AID686979 (National Center for Advancing Translational Sciences (NCATS), 2013).
# Values joined by “and” are separate entries in the source; they are usually repeats but may differ in a detail not shown here. Equal entries are not always repeated. Among all 420,000 compounds or so, about 50,000 (12%) were called active. Inconclusive means that the source gave no clear call. Such entries were picked first, then a sample of the others. Calls come from the whole dose curve; as a rule, active = well fitted inhibition curve with a large enough effect; inconclusive = small, poorly fitted or top-dose-only effect; inactive = flat fitted curve, though single readings scatter. Potencies of inconclusive entries are doubtful fits and often do not repeat.
# Assay: qHTS for Inhibitors of human tyrosyl-DNA phosphodiesterase 1 (TDP1): qHTS in cells in presence of CPT; note: nearly all actives have a fitted effect of over 55% in size
# Settings: chicken DT40 Tdp1-/-;hTDP1 cells + 20 nM CPT, ATP luminescence, 48 h
# Procedure, shortened: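 Chicken DT40 Tdp1-/- cells stably complemented with human TDP1 were seeded at 400 cells/well in medium containing 20 nM camptothecin, exposed to pin-transferred compounds, and grown at 37 °C for at least 48 hr. Viability was read as ATP luminescence.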
# [1] = activity change, negative = growth inhibition: at 46.2 µM (top of the series) unless noted
# % is set by controls: 0 for no effect and ±100 for the full control effect; potency is the fitted concentration of half-maximal effect; tags give direction and shape of the fitted curve.
compound,measurement,setting,value
CCC(C)NC(=O)C1CCCN(S(=O)(=O)c2ccc3c(c2)CC(C)N3C(C)=O)C1 (stereo not drawn),Potency,[1],"inconclusive: 18.4 µM [inhibitor, partial curve, poor fit]"
CC(C)Oc1ccc(CNC(=O)c2ccc3c(c2)N(C)CCS3)cc1,Potency,[1],"inconclusive: 29.1 µM [inhibitor, single point]"
Cc1ccc2ccc(S(=O)(=O)NCc3ccco3)cc2c1,Potency,[1],"inconclusive: 29.1 µM [inhibitor, single point]"
Cc1ccc2c(CC(=O)N3CCN(S(=O)(=O)c4ccc5c(c4)OCCO5)CC3)coc2c1,Potency,[1],inactive
CCc1nc(-c2ccc(-c3ccc(OC)cc3)nc2OC)no1,Potency,[1],"inconclusive: 29.1 µM [inhibitor, single point]"
CC(=O)Nc1cc(-c2ccoc2)cn2c(-c3ccccc3)cnc12,Potency,[1],active: 1.03 µM
CCOc1ccc(NC(=O)Nc2nc(SCC)ns2)cc1,Potency,[1],"inconclusive: 4.61 µM [inhibitor, single point]"
CCn1c(O)c(/C=N/N=C2CCCC2)c2ccc(C3=NNC(=O)CC3)cc21,"activity change, negative = growth inhibition",[1],inconclusive: -30.7% [inhibitor]
C=Cc1ccc(Cn2c(C(=O)O)c(CNC3CCCCC3)c3ccc(OC)cc32)cc1,Potency,[1],active: 20.6 µM
O=C(COc1ccccc1F)N1N=C(c2cccs2)CC1c1ccco1 (stereo not drawn),Potency,[1],"inconclusive: 0.411 µM [inhibitor, full curve, poor fit]"
O=C(O)C[C@H]1c2ccccc2S(=O)(=O)N1C1CCCC1,Potency,[1],"inactive and inconclusive: 1.41 µM [inhibitor, full curve, poor fit]"
CCC(C)NC(=O)CSc1c2c(nc3cc(Cl)ccc13)CCCC2 (stereo not drawn),Potency,[1],"inconclusive: 25.9 µM [inhibitor, single point]"
COc1ccc(CN(C)C(=O)c2ccc(OCC(=O)Nc3cccc(C(F)(F)F)c3)c(OC)c2)cc1,Potency,[1],"inconclusive: 29.1 µM [inhibitor, single point]"
CCOC(=O)C1=C(Nc2ccccc2)CC(C)(O)C(C(=O)OCC)C1c1ccc(Cl)cc1 (stereo not drawn),Potency,[1],"inconclusive: 23.1 µM [inhibitor, single point] and inconclusive: 18.4 µM [inhibitor, single point]"
COC(=O)C1=C(C(=O)OC)N2C=CC=CC2(C)C(C(=O)OC)=C1C(=O)OC (stereo not drawn),Potency,[1],inactive
Cc1ccc(NC(=O)c2ccc(Cl)cc2Cl)cc1O,Potency,[1],"inconclusive: 23.1 µM [inhibitor, single point]"
Cc1sc2ccccc2[n+]1C,Potency,[1],active: 3.98 µM
O=C(Nc1ccc2nc(SCC(=O)N3CCOCC3)sc2c1)c1ccc(Br)cc1,Potency,[1],"inconclusive: 5.8 µM [inhibitor, partial curve]"
O=C(/C=C/c1cccc([N+](=O)[O-])c1)NC(=S)Nc1ccc(CN2CCOCC2)cc1,Potency,[1],active: 16.4 µM
CCOc1ccc(NC(=O)CSc2nnc(CNC(=O)C34CC5CC(CC(C5)C3)C4)n2CC)cc1,Potency,[1],"inconclusive: 23.1 µM [inhibitor, partial curve]"
O=C(Nc1ccccc1Cl)c1cc2ccccc2o/c1=N\O,Potency,[1],"inconclusive: 16.4 µM [inhibitor, partial curve]"
Cc1ccc2c(CC(=O)NNC(=O)c3ccncc3)coc2c1,Potency,[1],inactive
Cc1sc(NC(=O)CN(Cc2ccc(F)cc2)C(=O)C(C)(C)C)c(C(N)=O)c1C,Potency,[1],active: 13 µM
NS(=O)(=O)c1cccc(NC(=O)COC(=O)COc2ccc3ccccc3c2)c1,Potency,[1],inactive
COc1ccc(-c2nc(CN3CCN(c4ncnc5ccccc45)CC3)c(C)o2)c(OC)c1,Potency,[1],active: 8.2 µM
Cc1cc2oc(C(=O)Nc3cccc(-c4nc5ccccc5o4)c3)c(C)c2cc1C,Potency,[1],"inconclusive: 6.51 µM [inhibitor, partial curve, poor fit]"
Cc1ccc(C(=O)ON=C2CCN(c3ccc([N+](=O)[O-])cc3)CC2)cc1,Potency,[1],"inconclusive: 25.9 µM [inhibitor, single point]"
C#CCOCCOCCOCCNc1nc(N2CCN(C(=O)CCCCCCCCCCNC(=O)Cn3cc(C[C@@H](C)O)nn3)CC2)nc(N2CCN(C(=O)CCCCCCCCCCNC(=O)Cn3cc(C[C@@H](C)O)nn3)CC2)n1,Potency,[1],active: 6.51 µM
CCCN(CCC)Cc1c(C(=O)N/N=C/c2ccc(Br)cc2)nnn1-c1nonc1N,Potency,[1],inactive
CCc1ccc(NC(=O)CSc2nc(-c3cccc(OC)c3)nc3c2Cc2c(CO)cnc(C)c2O3)cc1,Potency,[1],active: 6.51 µM
CC(Oc1ccccc1)C(=O)Nc1ccccc1C(=O)OCc1cc(=O)n2nc(C(C)C)sc2n1 (stereo not drawn),Potency,[1],"inconclusive: 18.4 µM [inhibitor, single point]"
CCn1c(=O)c(C(=O)NCc2ccccc2)c(O)c2ccccc21,Potency,[1],inactive
CCOC(=O)CN1C(c2ccc(O)cc2)Nc2ccc(Br)cc2C1c1ccccc1 (stereo not drawn),Potency,[1],active: 14.6 µM
Cc1cc(CNC[C@H]2O[C@@H](n3cnc(C(N)=O)n3)[C@H](O)[C@@H]2O)c(C)n1-c1cccnc1,Potency,[1],inactive
CCN(C(=O)CSc1ccc2ccccc2n1)C1CCCCC1,Potency,[1],"inconclusive: 29.1 µM [inhibitor, single point]"
O=C(NC(=S)NCCC1=CCCCC1)c1ccc(Br)o1,Potency,[1],"inconclusive: 1.64 µM [inhibitor, partial curve]"
CCN(CC)c1nc(C#N)cc(-c2ccc(OC)cc2)n1,Potency,[1],active: 8.2 µM
O=C(NCCc1ccccc1)c1ccc(Cn2c(SCc3ccccc3F)nc3cccnc32)cc1,Potency,[1],active: 16.4 µM
COc1ccc(CCNC(=O)C(=O)NCc2ccc(C(C)C)cc2)cc1OC,Potency,[1],"inconclusive: 29.1 µM [inhibitor, single point]"
CCOC(=O)C1C(c2ccc3c(c2)OCO3)NC(=O)NC1(O)C(F)(F)F (stereo not drawn),Potency,[1],active: 9.2 µM
COc1ccc(-c2cc(C(=O)N3CCC3)c3ccccc3n2)cc1OC,Potency,[1],inactive
O=C1CCCN1c1ccc(C(=O)N(Cc2nnc(-c3ccccc3Cl)o2)C2CC2)cc1,Potency,[1],"inconclusive: 2.59 µM [inhibitor, full curve]"
Cc1ccc(NC(=O)CNc2cccc(S(=O)(=O)N3CCOCC3)c2)cc1F,Potency,[1],"inconclusive: 29.1 µM [inhibitor, single point]"
C[C@@]12C(=O)N(c3cccc(Cl)c3)C(=O)N1[C@H](c1ccc(Cl)cc1)[C@@H]1C(=O)N(C3CCCCC3)C(=O)[C@@H]12,Potency,[1],"inconclusive: 25.9 µM [inhibitor, single point]"
CCCC12CN3CC(CCC)(CN(C1)C3c1ccc(OC(C)C)cc1)C2=O (stereo not drawn),Potency,[1],"inconclusive: 29.1 µM [inhibitor, single point]"
Cc1nc2ccccc2c2oc(C(=O)N3CCN(c4ccc([N+](=O)[O-])cc4)CC3)cc12,Potency,[1],"inconclusive: 3.26 µM [inhibitor, single point]"
CCCc1cc(=O)[nH]c(Nc2cc(C)cc(C)c2)n1,Potency,[1],"inconclusive: 29.1 µM [inhibitor, single point]"
CCOc1cc2c3c(c1)C1(C(=O)N3C(C)(C)CC2C)C(C#N)=C(N)N2C(=C1C#N)Nc1ccccc12 (stereo not drawn),Potency,[1],"inconclusive: 25.9 µM [inhibitor, partial curve, poor fit]"
CC(=O)N1N=C(c2c(-c3ccccc3)c3cc(C)ccc3[nH]c2=O)CC1c1ccco1 (stereo not drawn),Potency,[1],"inconclusive: 29.1 µM [inhibitor, single point]"
Clc1ccccc1CSc1nnc(C2CCNCC2)o1,Potency,[1],"inconclusive: 29.1 µM [inhibitor, single point]"
Cc1ccc(C(=O)N[C@H](C(=O)Nc2sccc2C(N)=O)C(C)C)cc1,Potency,[1],inactive
COc1ccc(NC(=O)c2cccc(Cn3cc(Br)c([N+](=O)[O-])n3)c2)c(C)c1,Potency,[1],"inconclusive: 18.4 µM [inhibitor, single point]"
COc1ccc(/C=C(\NC(=O)c2ccccc2)C(=O)N2CCN(C)CC2)cc1OC,Potency,[1],inactive
O=C(NC(=O)c1cccc(F)c1)OC[C@@H]1CCCN2CCCC[C@H]12,Potency,[1],inactive
COc1ccc(NC(=O)NCc2ccco2)cc1OC,Potency,[1],inactive
O=C(c1cnc2c(c1)COc1ccc(Cl)cc1-2)c1ccccc1O,"activity change, negative = growth inhibition",[1],inconclusive: -33.6% [inhibitor]
same,"activity change, negative = growth inhibition",at 46.2 µM (top of the series),inactive: -0.43%
O=C(CCn1nnc2ccccc21)N1CCC(O)(c2cccc(F)c2)CC1,Potency,[1],"inconclusive: 23.1 µM [inhibitor, single point]"
CCOc1ccc(OCC)c(NC(=O)CCS(=O)(=O)c2ccc(Br)s2)c1,Potency,[1],inactive
CCC(C)NC(=O)c1cn(CC)c2ccc(S(=O)(=O)N3CCCCCC3)cc2c1=O (stereo not drawn),Potency,[1],inactive
Cc1ccc(NC(=O)c2cccc3c2C(=O)N(C2CCCCC2)C3)cc1,Potency,[1],"inconclusive: 20.6 µM [inhibitor, single point]"
CCOc1cc(C)nc(N2CCC(C(=O)NC3CC3)CC2)n1,Potency,[1],inactive
COc1ccc(NC(=O)c2oc3ccccc3c2NC(=O)Cc2coc3ccc(C)cc23)cc1,Potency,[1],inactive
O=C(N/N=C/c1ccco1)c1ccccc1OCc1ccccc1Cl,Potency,[1],"inconclusive: 29.1 µM [inhibitor, single point]"
CC1(C)CC(=O)C(=Cc2cn(CCC#N)nc2-c2ccc(Cl)cc2)C(=O)C1,Potency,[1],"inconclusive: 29.1 µM [inhibitor, single point]"
CCc1ccc(-n2c(C)cc(/C=N/NC(=O)OC)c2C)cc1,Potency,[1],"inconclusive: 29.1 µM [inhibitor, single point]"
O=C(NCCc1c[nH]c2ccccc12)/C(=C\c1cccs1)NC(=O)c1ccccc1,Potency,[1],"inconclusive: 20.6 µM [inhibitor, single point]"
CCOC(=O)c1c(-c2ccccc2)csc1NC(=O)c1cc(S(=O)(=O)N2CCOCC2)ccc1C,Potency,[1],active: 7.31 µM
